From publication PMC6919601, “Identification of Plasmodium dipeptidyl aminopeptidase allosteric inhibitors by high throughput screening” (PLoS ONE, 2019)
The whole screen tested about 110,000 compounds, of which about 230 (0.21%) showed an effect of 50% or more. The list shows a part of the results.

The compounds below were run against DPAP1 (Plasmodium falciparum, UniProt Q8IIJ9) (assay: primary screen, percent inhibition; read by cleavage of a fluorogenic dipeptide substrate; higher = more effect of the substance).
Chain of DPAP1 (Q8IIJ9 whole entry, looked up): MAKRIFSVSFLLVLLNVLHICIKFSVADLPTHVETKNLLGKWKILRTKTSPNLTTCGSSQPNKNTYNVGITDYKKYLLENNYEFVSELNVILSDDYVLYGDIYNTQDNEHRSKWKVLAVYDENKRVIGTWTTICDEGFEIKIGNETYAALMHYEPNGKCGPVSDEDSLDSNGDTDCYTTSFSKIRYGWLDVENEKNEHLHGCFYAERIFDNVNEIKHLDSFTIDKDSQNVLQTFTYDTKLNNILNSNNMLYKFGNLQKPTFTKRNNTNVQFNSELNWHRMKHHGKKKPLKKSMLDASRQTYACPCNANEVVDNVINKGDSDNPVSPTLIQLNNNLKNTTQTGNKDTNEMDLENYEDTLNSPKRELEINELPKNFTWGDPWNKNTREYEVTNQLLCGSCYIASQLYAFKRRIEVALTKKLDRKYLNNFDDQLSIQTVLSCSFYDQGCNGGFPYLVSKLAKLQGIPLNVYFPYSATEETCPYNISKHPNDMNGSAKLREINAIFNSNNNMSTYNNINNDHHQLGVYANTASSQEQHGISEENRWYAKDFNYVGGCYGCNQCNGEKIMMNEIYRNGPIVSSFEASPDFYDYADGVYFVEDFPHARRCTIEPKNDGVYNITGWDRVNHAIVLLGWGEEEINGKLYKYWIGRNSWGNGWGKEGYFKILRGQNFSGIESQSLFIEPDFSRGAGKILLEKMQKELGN
Set-up: species or system P. falciparum D10 trophozoite lysates; single well
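Further: 30 min substrate incubation versus DMSO and 10 µM JCP410 controls.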

SMILES | % Inhibition @ 10 uM [%]
COc1ccc(-c2cc(-c3ccccc3)nc(SCC(N)=O)c2C#N)cc1 | 3.06
Cc1nc2c(c(C)nn2-c2ccccc2)c(C)c1CCC(=O)NC(C)c1ccc2c(c1)OCCO2 (stereo not drawn) | 4.14
Cc1c(CN2CCC(O)(c3ccc(Br)cc3)CC2)c(=O)n(-c2ccccc2)n1C | -1.21
O=C(O)c1cccc(-c2ccc(Cl)cc2)c1C(=O)O | -7.35
O=C(NCc1ccc2c(c1)OCO2)C1CCC(CNS(=O)(=O)c2ccccc2)CC1 (stereo not drawn) | -2.72
Cc1ccc(CNC(=O)C2COc3ccccc3O2)cc1 (stereo not drawn) | 1.62
CC(O)c1nc2cc([N+](=O)[O-])ccc2n1C (stereo not drawn) | -7.15
CCOc1ccc(NC(=O)c2ccc(OC(F)F)cc2)cc1 | -7.56
CCOC(=O)C1=C(CC)OC(N)=C(C#N)C12C(=O)Nc1ccc(Br)cc12 (stereo not drawn) | 0.467
O=C(CNS(=O)(=O)c1ccc(C(=O)N2CCCCC2)cc1)N1CCCCC1 | 2.25
CCN1C(=O)/C(=C\c2cc(C)n(-c3cc(C)ccc3OC)c2C)C(C(=O)OC)=C1C | 4.85
O=C(COc1ccccc1)NCc1nnc(S)n1-c1cccc(C(F)(F)F)c1 | 4.95
COc1ccc(S(=O)(=O)N(Cc2ccccc2)Cc2ccccc2)cc1OC | 3.66
NS(=O)(=O)c1ccc(C2(O)C=Nc3ccccc32)cc1 (stereo not drawn) | -2.78
CSCCC(C(=O)Nc1cccc(Cl)c1)N1C(=O)c2ccccc2C1=O (stereo not drawn) | -4.76
CCOC(=O)c1c(S(=O)(=O)Nc2ccc(C)cn2)c(C)n(C)c1C | -2.9
O=c1c(Cl)c(NC2CCCCCC2)cnn1C12CC3CC(CC(C3)C1)C2 | -5.29
O=C(Nc1ccc(Cl)c([N+](=O)[O-])c1)c1cccs1 | -1.62
Cn1c(=O)c2c(nc(NCc3ccco3)n2Cc2ccccc2Br)n(C)c1=O | -3.05
COc1cc(/C=C2\SC(=O)N(Cc3ccc(F)cc3)C2=O)cc(Br)c1OC | -1.6
COc1ccc(-c2ccccc2)cc1NCc1ccc(C)s1 | -0.603
COc1ccc(CNc2nc(-c3ccco3)nn2C(=O)CCc2ccccc2)cc1 | -1.47
CC[n+]1ccc(C2C(C#N)=C(N)OC(C)=C2C(=O)O)cc1 (stereo not drawn) | -3.77
COc1ccc(N2CCN(C(=O)c3cc(C)on3)CC2)cc1 | 1.39
CC1(C)CC(=O)C2=C(C1)c1c(ccc3ccccc13)NC2c1ccc2c(c1)OCO2 (stereo not drawn) | 13.8
Cc1ccc(C(=O)Nc2cccc(Cl)c2Cl)cc1[N+](=O)[O-] | 3.03

SMILES | % Inhibition @ 10 uM [%]
CCCC(=O)N1CCN(c2ccc([N+](=O)[O-])cc2F)CC1 | 0.392
c1ccc(CCN(Cc2ccccc2)Cc2ccncc2)cc1 | -2.95
CCC1CCCCN1S(=O)(=O)c1ccc(NC(=O)COc2c(C)cccc2C)cc1 (stereo not drawn) | -1.52
COc1ccc2c(CNCC3CCCO3)c(C(=O)O)n(Cc3ccc(F)cc3Cl)c2c1 (stereo not drawn) | 7.19
Cc1ccc(Cl)c(OCC(O)CN(CCO)CCO)c1 (stereo not drawn) | -10.1
c1csc(-c2csc(Cc3nc(-c4cccs4)cs3)n2)c1 | 3.27
N#C/C(=C/c1cccc(Cl)c1)c1nc(-c2ccccc2)cs1 | 5.85
CCC(C)c1ccc(NS(=O)(=O)c2ccc(OC)cc2)cc1 (stereo not drawn) | 2.22
CC1CCN(S(=O)(=O)c2ccc(NC(=O)c3ccc(C(C)(C)C)cc3)cc2)CC1 | 8.1
CCN(CC)CCc1c(O)n(C)c(=O)n(C)c1=O | 2.58
COc1ccc(C(=O)Nc2cccc(C(=O)O)c2)cc1 | 1.63
CCN(Cc1ccncc1)S(=O)(=O)c1ccc(Cl)cc1 | -5.65
O=S(=O)(c1ccc(Cl)cc1)c1cnc2cc3c(cc2c1N1CCCCC1)OCCO3 | -7.13
CCCCNC(=O)CSCc1nc(-c2ccccc2Cl)oc1C | -2.85
COc1cc(Cc2nnc(C(=O)NCCO)o2)cc(OC)c1OC | -0.602
CC1(C)CC2=Nc3ccccc3NC(c3cccnc3)C2=C(O)C1 (stereo not drawn) | -6.08
COc1cccc(N(CC(=O)Nc2c(C)cccc2C)S(C)(=O)=O)c1 | 4.56
C/C(=N\NC(N)=S)c1ccccc1O | 16.9
CCCN(CCC)c1nc2ccc(C(=O)c3ccccc3)cc2n2c(C)nnc12 | -10.3
Cc1nn(CCC(=O)NCc2ccccc2)c(=O)c2nn(-c3ccccc3)c(C)c12 | 1.26
Cc1ccc(Cn2c(-c3ccco3)nc3ccccc32)cc1 | 7.28
CCOC(=O)/N=C(/N[C@@H](CC(C)C)C(=O)NCC#N)c1ccc(Br)cc1 | -3.48
CCC(C)Nc1nc2ccccc2n2c(C)nnc12 (stereo not drawn) | -3.41
N#Cc1ccccc1Nc1nc(N)nc(Cl)n1 | -0.999
CCCCN1CC(C(=O)NCc2ccc(F)cc2)CC1=O (stereo not drawn) | -5.43
O=S(=O)(c1ccc(-c2csc(Nc3ccc(Br)cc3)n2)cc1)N1CCCC1 | -6.18

SMILES | % Inhibition @ 10 uM [%]
O=C1NC(=O)/C(=C\c2ccc(F)cc2)N1 | 18
NC(=O)CN1C(=O)C(O)(CC(=O)c2ccccc2)c2ccccc21 (stereo not drawn) | -2.75
COc1cccc(OC)c1C(=O)Nc1ccccc1Br | -3.65
CC(NC(=O)C1CCCN(C(=O)c2cc3sccc3n2C)C1)C12CC3CC(CC(C3)C1)C2 (stereo not drawn) | -7.84
C=CCn1c(SCC#N)nc2sc(CC)cc2c1=O | -3.46
CN1C(=O)C(S(=O)(=O)c2ccccc2)C2CC1(C)Oc1ccccc12 (stereo not drawn) | -4.47
CCOC(=O)/C(C#N)=C/c1c(Oc2ccc(Cl)c(C)c2)nc2ccccn2c1=O | -4
Cc1ccc(C(=O)NC(Cc2c[nH]c3ccccc23)C(=O)O)cc1 (stereo not drawn) | -5.28
COc1ccc(-c2nc(O)c3c(n2)Oc2ccc(C)cc2C3)c(OC)c1 | 5.48
Cc1cccc(C(=O)Nc2ccc(C(C)C)cc2)c1 | -0.192
CCc1cccc(C)c1NC(=O)CN(c1ccc(Cl)cc1C)S(C)(=O)=O | -0.251
CCC(C)c1ccc(NC(=O)COc2ccc(F)cc2)cc1 (stereo not drawn) | -2.22
O=C(NCc1nc2ccccc2n1CCOc1ccc(Cl)cc1)c1ccccc1 | 5.35
CCCCn1nnnc1NCc1cccnc1 | 0.776
CC1CCC(C(=O)NC(Cc2ccccc2)C(=O)NCCc2ccc(S(N)(=O)=O)cc2)CC1 (stereo not drawn) | -4.86
CN(CC(=O)NCc1ccco1)S(=O)(=O)c1ccc(F)cc1 | 1.19
Nc1ccc(-c2cc3ccccc3oc2=O)cc1 | -7.6
CCOC(=O)N1CCC(NC(C)c2ccc(F)cc2)CC1 (stereo not drawn) | 4.82
O=C(Nc1cccc(Cl)c1Cl)C12CC3CC(CC(C3)C1)C2 | -3.79
C=CCOc1c(Br)cc(Br)cc1/C=C1\SC(N)=NC1=O | -3.92
NC(=O)c1c2c(nc3ccccc13)CCN(Cc1ccccc1)C2 | -3.34
OC12CCCCC1C(c1ccc(F)cc1F)NCC2 (stereo not drawn) | -3.63
Cc1ccc(C)c(N(CC(=O)NC(C)c2ccccc2)S(C)(=O)=O)c1 (stereo not drawn) | -2.54
Cc1ccc(Cn2c(C)c3cnn(CC(=O)N4CCN(C)CC4)c(=O)c3c2C)cc1 | 2.84
Cc1oc(-c2cccc(Cl)c2)nc1CN1CCCC(C(=O)NCCC2=CCCCC2)C1 (stereo not drawn) | -4.71
CCN1CCN(Cc2nc3c(c(=O)n(C)c(=O)n3C)n2CCc2ccccc2)CC1 | -5.1

SMILES | % Inhibition @ 10 uM [%]
COc1cc(C2C(C#N)=C(N)Oc3cc(C)nc(O)c32)ccc1OCc1ccc(Cl)cc1 (stereo not drawn) | 2.31
CCOc1ccc(C2Nn3c(C)nnc3SC2C(=O)NCc2ccc(OC)cc2)cc1 (stereo not drawn) | 4.93
O=C(c1ccco1)N1CCN(c2ccccc2)CC1 | -1.88
O=C(CN1C(=O)C2C3CCC(C3)C2C1=O)Nc1ccccc1 (stereo not drawn) | 2.76
CC1CCCC(C)N1C(=O)c1cccc(N)c1 (stereo not drawn) | -8.43
C/C(O)=C\C(C)=N\c1cccc(C(=O)c2ccccc2)c1 | -2.8
Cc1ccnc2nc(NC(=O)c3ccccc3F)nn12 | 2.05
Cc1ccc(C2CC(=O)C(/C=N/CCN3CCN(C(=O)C(C)C)CC3)=C(O)C2)cc1 (stereo not drawn) | -7.3
CC1Cc2cc(C(=O)C3=C(O)C(=O)N(CCN(C)C)C3c3cccs3)ccc2O1 (stereo not drawn) | -10
Cc1sc2ncn(CC(=O)NCc3ccc(F)cc3)c(=O)c2c1S(=O)(=O)N1CCC(C)CC1 | -1.2
NC(=O)C1CCN(Cc2ccc(-c3ccccc3)cc2)CC1 | 0.0792
CSc1ncc(C(=O)Nc2ccc(Cl)cn2)c(C)n1 | -5
COc1ccc(Br)cc1CN1CCCCC1 | 4.9
CCC(C)NC(=O)CCSc1ccc(C)cc1 (stereo not drawn) | 1.87
Cc1nc(SCC(=O)Nc2ccc(Cl)cc2)nc2c1CCCC2 | 6.79
COc1cc2c(cc1OC)CN(C(=O)CSc1nnc3ccccn13)CC2 | 0.778
Cc1ccc(-n2c(CCC(=O)O)ccc2-c2cccs2)cc1 | 1.31
CCOc1ccc2nc(NS(=O)(=O)c3ccccc3C)sc2c1 | 3.91
CCOc1ccc2c(=O)c(Oc3ccc(C(C)(C)C)cc3)coc2c1 | 5.5
CC1CN=C(/C=C(\O)c2ccc(Br)cc2)C(=O)N1 (stereo not drawn) | 4.09
O=S(=O)(Nc1ccc(S(=O)(=O)NC2CCCCC2)cc1)c1ccccc1 | 1.88
COc1ccc(CCNc2nc(-c3cccnc3)cs2)cc1OC | 0.0539
Cc1cc(C)c(S(=O)(=O)Nc2ccc(O)c(Cl)c2)cc1C | -1.52
O=C(CCCc1ccccc1)Nc1ccc(C(=O)O)cc1 | 5.66
